Experimental data taken from the RNAGym collection of RNA variant scans (doi:10.1093/nar/gkz1192).
The source gives no read counts; variants with many changes may rest on few reads.

B1: CPEB3 Ribozyme (parent)
chain: UAACAGGGGGCCACAGCAGAAGCGUUCACGUCGCAGCCCCUGUCAGAUUCUGGUGAAUCUGCGAAUUCUGCUGUAUAUCUC

Variants of: B1
Assay: self-cleavage, relative activity (ratio to wild type); higher = more cleavage; in vitro, sequencing
Procedure, shortened: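 Relative activity was defined as the cleaved/total read fraction for a variant divided by the same fraction for the unmutated ribozyme. CPEB3 self-cleaving ribozyme libraries were made by rounds of error-prone PCR, barcoded, and transcribed in vitro with T7 RNA polymerase for 5 hours at 37°C, and cleavage ran through transcription plus a 15 min DNase I step before EDTA. Illumina sequencing of template-switched reverse transcripts gave the reads, and DNA sequencing mapped the barcodes. Averages come from three batches, using variants with at least 5 reads.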

Variant	self-cleavage
UAACAGGGGGCCACAGCAGAAGCGUUCACGUCGCAGCCCCUGUCAGUUUCUGGAGGAUCUGCGAAUUCUGCUGUAUAUCUC [A47U U54A A56G]	0.61
UAACAGGGGGCCACAGCAGAAGCGUUCACGUCGCAGCCCCUGUCAGUUUCUGGAGAAUCAGCGAAUUCUGCUGUAUAUCCC [A47U U54A U60A U80C]	0.35
UAACAGGGGGCCACAGCAGAAGCGUUCACGUCGCAGCCCCUGUCAGUUUCUGGUGAACCUGCGAAUUCUGCUGUAUAUCCC [A47U U58C U80C]	0.34
UAACAGGGGGCCACAGCAGAAGCGUUCACGUCGCAGCCCCUGUCAGUUUCUGGUGAAUCCGCGAAUUCUGCUGUAAAUCUC [A47U U60C U76A]	0.11
UAACAGGGGGCCACAGCAGAAGCGUUCACGUCGCAGCCCCUGUCAGAAUCUGGUGAACCCGCGAAUUCUGCUGUAUAUCUC [U48A U58C U60C]	0.23
UAACAGGGGGCCACAGCAGAAGCGUUCACGUCGCAGCCCCUGUCAGAAUCUGGUGAAUCUGCGAACUCUGCUGUAUAACUC [U48A U66C U78A]	0.1
UAACAGGGGGCCACAGCAGAAGCGUUCACGUCGCAGCCCCUGUCAGAAUCUGGUGAAUCUGCGAAUUCUGCAGUAUUUCUC [U48A U72A A77U]	0.2
UAACAGGGGGCCACAGCAGAAGCGUUCACGUCGCAGCCCCUGUCAGACUCUGGUGGGUCUGCGAAUUCUGCUGUAUAUCUC [U48C A56G A57G]	0.69
UAACAGGGGGCCACAGCAGAAGCGUUCACGUCGCAGCCCCUGUCAGACUCUGGUGGGUCUGCGAAUUCAGCUGUAUAUCUC [U48C A56G A57G U69A]	0.41
UAACAGGGGGCCACAGCAGAAGCGUUCACGUCGCAGCCCCUGUCAGACUCUGGUGGAUCUGCGAAUUCAGCUGUAUAUCUC [U48C A56G U69A]	0.19
UAACAGGGGGCCACAGCAGAAGCGUUCACGUCGCAGCCCCUGUCAGACUCUGGUGAGUCUGCGGUUUCUGCUGUAUAUCUC [U48C A57G A64G A65U]	0.19
UAACAGGGGGCCACAGCAGAAGCGUUCACGUCGCAGCCCCUGUCAGACUCUGGUGAGUCUGCGAGUUCUGCUGUAUAUCUC [U48C A57G A65G]	0.51
UAACAGGGGGCCACAGCAGAAGCGUUCACGUCGCAGCCCCUGUCAGACUCUGGUGAGUCUGCGAAUUCUGCUGUGUAUCUC [U48C A57G A75G]	1.14
UAACAGGGGGCCACAGCAGAAGCGUUCACGUCGCAGCCCCUGUCAGACUCUGGUGAAUCUGCGUAUCCUGCUGUAUAUCUC [U48C A64U U67C]	0.47
UAACAGGGGGCCACAGCAGAAGCGUUCACGUCGCAGCCCCUGUCAGACUCUGGUGAAUCUGCGAGUUCUGCUGUAUGUCUC [U48C A65G A77G]	0.18
UAACAGGGGGCCACAGCAGAAGCGUUCACGUCGCAGCCCCUGUCAGACUCUGGUGAAUCUGCGAGCUCUGCUGUAUCUCUC [U48C A65G U66C A77C]	0.17
UAACAGGGGGCCACAGCAGAAGCGUUCACGUCGCAGCCCCUGUCAGACUCUGGUGAAUCUGCGAAUUCUGUAGUAAAUCUC [U48C C71U U72A U76A]	0.34

Variant	self-cleavage
UAACAGGGGGCCACAGCAGAAGCGUUCACGUCGCAGCCCCUGUCAGACUCUGGUGAAUCUGCGAAUUCUGCUGUAUAUGCC [U48C C79G U80C]	0.82
UAACAGGGGGCCACAGCAGAAGCGUUCACGUCGCAGCCCCUGUCAGACUCUGACGAAUCUGCGAAUUCUGCUGUAUACCUC [U48C G53A U54C U78C]	0.16
UAACAGGGGGCCACAGCAGAAGCGUUCACGUCGCAGCCCCUGUCAGACUCUGGUUAAUCUGCGAAUUCUGCUGUGUAUCUC [U48C G55U A75G]	0.23
UAACAGGGGGCCACAGCAGAAGCGUUCACGUCGCAGCCCCUGUCAGACUCUGGUGAAUCUCCGAAUCCUGCUGUAUAUCUC [U48C G61C U67C]	0.15
UAACAGGGGGCCACAGCAGAAGCGUUCACGUCGCAGCCCCUGUCAGACUCUGGUGAAUCUGCGAAUUCUCCUGUACAUCUC [U48C G70C U76C]	0.1
UAACAGGGGGCCACAGCAGAAGCGUUCACGUCGCAGCCCCUGUCAGACCCUGGUGAAUCUGCGAAUUCUGCUGUGUAUCUC [U48C U49C A75G]	0.13
UAACAGGGGGCCACAGCAGAAGCGUUCACGUCGCAGCCCCUGUCAGACCCUGGUGAAUAUGCGAAUUCUGCUGUAUAUCUC [U48C U49C C59A]	0.11
UAACAGGGGGCCACAGCAGAAGCGUUCACGUCGCAGCCCCUGUCAGACCCUGGUGAAUCAGCGAAUUCAGCUGUAUACCUC [U48C U49C U60A U69A U78C]	0.06
UAACAGGGGGCCACAGCAGAAGCGUUCACGUCGCAGCCCCUGUCAGACCCUGGUGAAUCUGCGAACUCUGCUGUAUAUCUC [U48C U49C U66C]	0.19
UAACAGGGGGCCACAGCAGAAGCGUUCACGUCGCAGCCCCUGUCAGACUCCGGUGAGUCUGCGAAUUCUGCUGUAUAUCUC [U48C U51C A57G]	1
UAACAGGGGGCCACAGCAGAAGCGUUCACGUCGCAGCCCCUGUCAGACUCCGGUGAAUCUGCGAGUUCUGCUGUAUAUCUC [U48C U51C A65G]	0.2
UAACAGGGGGCCACAGCAGAAGCGUUCACGUCGCAGCCCCUGUCAGACUCGGGUGAAUCUGCGAAUUCUGCUGUACAUCUC [U48C U51G U76C]	0.42
UAACAGGGGGCCACAGCAGAAGCGUUCACGUCGCAGCCCCUGUCAGACUCGGGUGAAUCUGCGAAUUCUGCUGUAUAUCCC [U48C U51G U80C]	0.46
UAACAGGGGGCCACAGCAGAAGCGUUCACGUCGCAGCCCCUGUCAGACUCUGGAGAAUCUGCGUAUCCUGCGGUAUAUCCC [U48C U54A A64U U67C U72G U80C]	0.21
UAACAGGGGGCCACAGCAGAAGCGUUCACGUCGCAGCCCCUGUCAGACUCUGGCGAGUCUGCGAAUUCUGCUGUAUAUCUC [U48C U54C A57G]	1
UAACAGGGGGCCACAGCAGAAGCGUUCACGUCGCAGCCCCUGUCAGACUCUGGCGAUUCUGCGAAUUCUGCUGUAUAUCUC [U48C U54C A57U]	0.26
UAACAGGGGGCCACAGCAGAAGCGUUCACGUCGCAGCCCCUGUCAGACUCUGGCGAAUCUGCGGAUUCUGCUGCAUAUCUC [U48C U54C A64G U74C]	0.48
